From patent publication US20240285780A1 (priority 2020, published 2024) come the findings set out here.

The conditions of data set [1]: 1000 ppm in sterile distilled water, 45° C., up to 75 days, HPLC. The procedure:
The peptide of the present invention consisting of the amino acid sequence of SEQ ID NO: 1 was dissolved in sterile distilled water at a concentration of 1000 ppm, and stored at 45° C. for 7 days, 14 days, 28 days, 60 days, and 75 days, and then HPLC analysis was performed.

The conditions of data set [2]: 1000 ppm in sterile distilled water, 121° C., up to 30 minutes, HPLC. The method, then: The peptide of the present invention was dissolved in sterile distilled water at a concentration of 1000 ppm, heated at 121° C. for 15 minutes and 30 minutes, and then HPLC analysis was performed.

For the substance “KFLIK [peptide of the present invention]”, the “stability of the peptide during storage” value in data set [1] is reported as “maintained”. For the same substance, the “stability of the peptide on heating” value in data set [2] is “maintained”.
